Laboratory results from PubChem BioAssay AID1347073 (National Center for Advancing Translational Sciences (NCATS), 2019).
Screen size: about 45,000 compounds; about 200 (0.44%) were called active. The inconclusive results got no clear call from the source; some entries with a clear call stand among them for comparison. The call rests on the fitted dose curve; in most records, active means well fitted activation curve with a large enough effect; inconclusive means small, poorly fitted or top-dose-only effect; inactive means no such curve, though single readings can be large or run the other way. A potency beside an inconclusive call is a rough fit, not a confirmed value.
Potency means the concentration at half of the fitted maximal effect; tags describe the fitted curve by direction and shape.

Assay: qHTS of TDP-43 Inhibitors: NCGC Sytravon Library Screen; further: nearly all actives have a fitted effect of over 55% in size; on growth rescue (activation): 0% is about no effect
Conditions: yeast TDP-43 toxicity rescue, BacTiter-Glo growth, 24 h; growth rescue (activation): at 46.1 µM (top of the series)
How it was run: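 TDP-43-expressing yeast, pregrown in raffinose, seeded at OD600 0.02 in galactose medium with compound for 24 hr at 30 deg C. Growth read by BacTiter-Glo luminescence, so rescue of toxicity appears as activation.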
For `CC1(C(=O)NS(=O)(=O)c2ccc3c(c2)CCO3)CCN1C(=O)C1(c2ccc(Cl)cc2)CC1` (centres undefined), the Potency was inconclusive: 25.1 µM [activator, single point]. For `Cc1cc(OCC(=O)Nc2cc(-c3nc4ccccc4[nH]3)ccc2C)ccc1Cl`, the Potency was “inactive”. In the case of `C/C(N)=C(/C#N)C(=O)COc1ccc(Cl)cc1Cl`, the Potency is reported as inconclusive: 35.5 µM [activator, single point]. With `S=C(NC1CCCCC1)NN(c1ccccc1)c1ccccc1` the Potency was inconclusive: 22.4 µM [activator, single point]. In the case of `COc1ccccc1CNC(=O)Nc1cccs1`, the Potency is reported as inconclusive: 3.55 µM [activator, partial curve, poor fit]. With `O=C(O)CCCCCCCCCCP(=O)(c1ccccc1)c1ccccc1` the Potency was inconclusive: 35.5 µM [activator, partial curve, poor fit]. In the case of `O=C(Nc1cc(Cl)cc(Cl)c1)C1C2C=CC3(O2)C1C(=O)N(CCCN1CCOCC1)C3C(=O)NC1CCCCC1` (centres undefined), the Potency is reported as “inactive”. For `CN=c1scc(-c2cccs2)n1/N=C/c1ccccc1O`, the Potency was inconclusive: 35.5 µM [activator, single point]. For `COc1ccc(NC(=O)C2Cc3c(-c4cccc(F)c4)ccnc3O2)cc1` (centres undefined), the Potency was inconclusive: 15.8 µM [activator, partial curve, poor fit]. For `CC(C)(C)c1ccc(OCCNC(=S)NC(=O)c2cccnc2)cc1`, the growth rescue (activation) was inconclusive: -44.2% [activator]. With `O=C(Nc1ccccc1Br)C1CCN(S(=O)(=O)c2cccs2)CC1` the Potency was inconclusive: 12.6 µM [activator, partial curve, poor fit]. In the case of `Cc1cccc(NC(=O)Nc2nnc([C@@H]3C[C@H](O)[C@@H](CO)O3)s2)c1`, the Potency is reported as “inactive”. In the case of `O=C(N/N=C/C(Br)=C/c1ccccc1)c1cnccn1`, the Potency is reported as inconclusive: 10 µM [activator, partial curve, poor fit]. For `COc1ccc(-c2nn(C)c(=O)c3ccccc23)cc1CNC(=O)C1CCCCC1`, the Potency was “inactive”. In the case of `Cc1nn(CC(=O)N2CCN(c3ccccc3F)CC2)c(=O)c2cccn12`, the Potency is reported as “inactive”. With `O=C(O)C1=C(OCc2ccccc2)C(=O)NCC1` the growth rescue (activation) was inconclusive: -43.5% [activator]. In the case of `CCOC(=O)c1sc2ncnc(N3CCN(C(=O)OCC)CC3)c2c1C`, the Potency is reported as inconclusive: 14.1 µM [activator, partial curve, poor fit]. In the case of `O=C(c1cc(-c2ccccc2Cl)nc2ccccc12)N1CCOCC1`, the Potency is reported as inconclusive: 22.4 µM [activator, partial curve, poor fit]. With `COc1cccc(C(O)c2nc(-c3ccc(OC)nc3)cs2)c1` (centres undefined) the Potency was inconclusive: 17.8 µM [activator, partial curve, poor fit].
